# The other results are listed elsewhere or left out. Single values are uncertain, as repeats are few or missing.
# Tested on: HCC-1143
# Experiment: cell viability relative to vehicle (% of vehicle); basal-like triple-negative breast cancer lines; higher = less cytotoxic
# Conditions: 10 µM; 72 h
# 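Also: stably firefly luciferase-GFP labeled cells in 96-well plates, viability read as luciferase photon flux after d-luciferin addition, treated wells normalized to vehicle wells, single-dose high-throughput screen.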
row,SMILES,cell viability
1,C[N+](C)(CCOc1ccccc1)Cc1ccccc1.O=C(O)c1cc2ccccc2cc1[O-] [Bephenium Hydroxynaphthoate],84.8
2,CCN(CC)CCOC(=O)C1(C2CCCCC2)CCCCC1.Cl [Dicyclomine HCl],86.9
3,CN(C)CCOC(c1ccccc1)c1ccccc1.Cl [Diphenhydramine HCl],98.4
4,CCOc1ccc2ccccc2c1C(=O)NC1C(=O)N2C1SC(C)(C)C2C(=O)[O-].O.[Na+] (stereo not given) [Nafcillin Sodium],120
5,Cc1ccc(-n2nc(C(C)(C)C)cc2NC(=O)Nc2ccc(OCCN3CCOCC3)c3ccccc23)cc1 [BIRB 796 (Doramapimod)],88.5
6,C#CC1(O)CCC2C3CCc4cc(OC)ccc4C3CCC21C (stereo not given) [Mestranol],78.8
7,CC(=O)NC1C(N=C(N)N)C=C(C(=O)O)OC1C(O)C(O)CO (stereo not given) [Zanamivir],76.7
8,CS(=O)(=O)OCCCCOS(C)(=O)=O [Busulfan],74.5
9,Nc1nc(F)nc2c1ncn2C1OC(COP(=O)(O)O)C(O)C1O (stereo not given) [Fludarabine Phosphate (Fludara)],74.8
10,OCCOc1ccc(C(=C(CCCl)c2ccccc2)c2ccccc2)cc1 [Ospemifene],77.7
11,O=C(c1ccc(F)c(F)c1Nc1ccc(I)cc1F)N1CC(O)(C2CCCCN2)C1 (stereo not given) [Cobimetinib],86.7
12,CC1CC2C3CC(F)C4=CC(=O)C=CC4(C)C3(F)C(O)CC2(C)C1(O)C(=O)CO (stereo not given) [Flumethasone],77.6
13,Clc1ccc(COC(Cn2ccnc2)c2ccc(Cl)cc2Cl)cc1.O=[N+]([O-])O (stereo not given) [Econazole nitrate],100
14,CC(C)Cc1ccc(C(C)C(=O)O)cc1.NCCCCC(N)C(=O)O (stereo not given) [Ibuprofen Lysine],73.5
15,Cc1cc(C#N)cc(C)c1Oc1nc(Nc2ccc(C#N)cc2)nc(N)c1Br [Etravirine (TMC125)],67
16,CC1(C)SC2C(NC(=O)Cc3ccccc3)C(=O)N2C1C(=O)[O-].[Na+] (stereo not given) [Penicillin G Sodium],91.8
17,"CC(CN1CC(=O)NC(=O)C1)N1CC(=O)NC(=O)C1.Cl (stereo not given) [Dexrazoxane HCl (ICRF-187, ADR-529)]",86.3
18,CC[C@H](C)[C@@H]1NC(=O)[C@H](Cc2ccc(O)cc2)NC(=O)[C@@H](N)CSSC[C@@H](C(=O)N2CCC[C@H]2C(=O)N[C@@H](CC(C)C)C(=O)NCC(N)=O)NC(=O)[C@H](CC(N)=O)NC(=O)[C@H](CCC(N)=O)NC1=O [Oxytocin],87.3
19,CCOc1cc(C(CS(C)(=O)=O)N2C(=O)c3cccc(NC(C)=O)c3C2=O)ccc1OC (stereo not given),98.3
20,CCCCOc1ccc(C(=O)CCN2CCCCC2)cc1.Cl [Dyclonine HCl],95.4

row,SMILES,cell viability
1,CCCNC(C)C(=O)Nc1c(C)csc1C(=O)OC.Cl (stereo not given) [Articaine HCl],70.3
2,Cl.NC(N)=NC(N)=NCCc1ccccc1 [Phenformin HCl],84.7
3,C=CC(=O)Nc1cc(Nc2nccc(-c3cn(C)c4ccccc34)n2)c(OC)cc1N(C)CCN(C)C,35.5
4,CC(Oc1cc(-c2cnn(C3CCNCC3)c2)cnc1N)c1c(Cl)ccc(F)c1Cl [(R)-Crizotinib],49.7
5,Cc1cc(C)c2c(c1)C(N(Cc1cc(C(F)(F)F)cc(C(F)(F)F)c1)c1nnn(C)n1)CCCN2CC1CCC(C(=O)O)CC1 (stereo not given),108
6,C#CCNC1CCc2ccccc21.CS(=O)(=O)O (stereo not given) [Rasagiline Mesylate],105
7,CC(=O)Oc1cc2c(s1)CCN(C(C(=O)C1CC1)c1ccccc1F)C2.Cl (stereo not given) [Prasugrel hydrochloride],103
8,CC(C)(C)NC(=O)C1CCC2C3CCC4NC(=O)C=CC4(C)C3CCC12C (stereo not given) [Finasteride],80.9
9,CCn1cc(C(=O)O)c(=O)c2cc(F)c(N3CCN(C)CC3)cc21.CS(=O)(=O)O [Pefloxacin Mesylate],74.7
10,CC1(C)CCC(c2ccc(Cl)cc2)=C(CN2CCN(c3ccc(C(=O)NS(=O)(=O)c4ccc(NC(CCN5CCOCC5)CSc5ccccc5)c(S(=O)(=O)C(F)(F)F)c4)cc3)CC2)C1 (stereo not given) [ABT-263 (Navitoclax)],73.3
11,CC12CCC3c4ccc(OC(=O)c5ccccc5)cc4CCC3C1CCC2O (stereo not given) [Estradiol Benzoate],134
12,COc1cccc(-c2ccc(NC(=O)C3=C(C(=O)O)CCC3)c(F)c2)c1 [Vidofludimus],107
13,COc1nc2ccc(Br)cc2cc1[C@@H](c1ccccc1)[C@@](O)(CCN(C)C)c1cccc2ccccc12 [Bedaquiline],106
14,Nc1nc(N)c2nc(-c3ccccc3)c(N)nc2n1 [Triamterene],61.6
15,CCC1(O)CC2CN(CCc3c([nH]c4ccccc34)C(C(=O)OC)(c3cc4c(cc3OC)N(C)C3C(O)(C(=O)OC)C(OC(C)=O)C5(CC)C=CCN6CCC43C65)C2)C1 (stereo not given) [vinblastine],68.3
16,CNC(=O)C(NC(=O)C(CC(C)C)C(O)C(=O)NO)C(C)(C)C (stereo not given) [Marimastat],74.8
17,CC12CCC(=O)C=C1C1CC1C1C2CCC2(C)C1C1CC1C21CCC(=O)O1 (stereo not given) [Drospirenone],79.1
18,CCC1OC(=O)C(C)C(OC2CC(C)(OC)C(O)C(C)O2)C(C)C(OC2OC(C)CC(N(C)C)C2O)C(C)(O)CC(C)CN(C)C(C)C(O)C1(C)O.O.O (stereo not given) [Azithromycin Dihydrate],105
19,NC(=O)c1ccc(I)c([N+](=O)[O-])c1 [Iniparib (BSI-201)],78.4
20,COc1cc2nc(N(C)CCCNC(=O)C3CCCO3)nc(N)c2cc1OC.Cl (stereo not given) [Alfuzosin HCl],81.8

# Reference: the supplement of paper PMC8512760
